Our source for the Ki values is patent US8592383B2, “Cycloalkyl-fused tetrahydroquinolines as CRTH2 receptor modulators” (Merck Sharp & Dohme Corp., priority 2011, dated 2013).

This assay concerns the target T1, hCRTH2 (Homo sapiens, UniProt Q9Y5Y4).
T1 sequence (Q9Y5Y4 1-395): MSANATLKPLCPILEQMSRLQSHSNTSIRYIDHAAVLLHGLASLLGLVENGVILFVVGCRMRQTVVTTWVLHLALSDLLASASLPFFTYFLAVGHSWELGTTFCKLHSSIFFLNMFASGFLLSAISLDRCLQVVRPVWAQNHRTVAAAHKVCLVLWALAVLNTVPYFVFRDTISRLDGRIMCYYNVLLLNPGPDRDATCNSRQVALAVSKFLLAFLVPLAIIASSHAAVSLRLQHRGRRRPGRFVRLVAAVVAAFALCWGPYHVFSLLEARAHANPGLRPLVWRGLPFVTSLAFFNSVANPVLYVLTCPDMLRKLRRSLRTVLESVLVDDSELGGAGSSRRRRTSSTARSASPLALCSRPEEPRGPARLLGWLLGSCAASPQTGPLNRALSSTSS
Kind of assay: biochemical. The note with it: Ki (nM), Table A; Radioligand Binding Assay A, [3H]PGD2, HEK-hCRTH2 membranes.
In general, Ki refers to a measure of affinity in units of concentration, obtained from inhibition or displacement. Read a high Ki as lower affinity. On to `O=C(O)c1ccccc1C(=O)N(C1CC1)[C@@H]1c2ccccc2N(C(=O)c2ccc(OC(F)(F)F)cc2)[C@@H]2CCC[C@@H]21` (racemic) [17Ci, 2-[[cyclopropyl[cis,cis-2,3,3a,4,9,9a-hexahydro-4-[4-(trifluoromethoxy)benzoyl]-1H-cyclopenta[b]quinolin-9-yl]amino]carbonyl]benzoic acid], for which the Ki lay in the range of 201 to 7500 nM.
Then `Cn1c(C(=O)N2c3ccccc3C(N(C(=O)CCC(=O)O)C3CC3)C3CCCC32)nc2ccccc21` (racemic) [17DN, 4-[cyclopropyl[cis,cis-2,3,3a,4,9,9a-hexahydro-4-[(1-methyl-1H-benzimidazol-2-yl)carbonyl]-1H-cyclopenta[b]quinolin-9-yl]amino]-4-oxobutanoic acid], with 5.1 to 20 nM; and `O=C(O)CS(=O)(=O)N(C1CC1)C1c2ccccc2N(C(=O)c2ccc(OC(F)(F)F)cc2)C2CCCC21` (racemic) [17Do, [[cyclopropyl[cis,cis-2,3,3a,4,9,9a-hexahydro-4-[4-(trifluoromethoxy)benzoyl]-1H-cyclopenta[b]quinolin-9-yl]amino]sulfonyl]acetic acid], with 201 to 7500 nM; and `O=C(O)CCC(=O)N(CC1CC1)C1c2ccccc2N(C(=O)c2ccccc2)C2CCCC12` (racemic) [17G, 4-[[cis,cis-4-benzoyl-2,3,3a,4,9,9a-hexahydro-1H-cyclopenta[b]quinolin-9-yl](cyclopropylmethyl)amino]-4-oxobutanoic acid], with 5.1 to 20 nM.
The figure for `COC(=O)CCC(=O)N(CC1CC1)C1c2ccccc2N(C(=O)c2ccc(OC(F)(F)F)cc2)C2CCCC12` (racemic) [17J, methyl 4-[(cyclopropylmethyl)[cis,cis-2,3,3a,4,9,9a-hexahydro-4-[4-(trifluoromethoxy)benzoyl]-1H-cyclopenta[b]quinolin-9-yl]amino]-4-oxobutanoate] is 201 to 7500 nM.
The figure for `O=C(O)CCC(=O)N(CC1CC1)C1c2ccccc2N(C(=O)OCc2ccccc2)C2CCCC12` (racemic) [17K, 4-(phenylmethyl) cis,cis-9-[(3-carboxy-1-oxopropyl)(cyclopropylmeth-yl)amino]-1,2,3,3a,9,9a-hexahydro-4H-cyclopenta[b]quinoline-4-carboxylate] is 5.1 to 20 nM.
The compound `O=C(O)CCC(=O)N(CC1CC1)C1c2ccccc2N(C(=O)c2ccc(OC(F)(F)F)cc2)C2CCCC12` (racemic) [17L, 4-[(cyclopropylmethyl)[cis,cis-2,3,3a,4,9,9a-hexahydro-4-[4-(trifluoromethoxy)benzoyl]-1H-cyclopenta[b]quinolin-9-yl]amino]-4-oxobutanoic acid] displayed a Ki of 5.1 to 20 nM.
For `CC(C)N(C(=O)CCC(=O)O)C1c2ccccc2N(C(=O)c2ccccc2)C2CCCC21` (racemic) [17M, 4-[[cis,cis-4-benzoyl-2,3,3a,4,9,9a-hexahydro-1H-cyclopenta[b]quinolin-9-yl](1-methylethyl)amino]-4-oxobutanoic acid], the Ki is 20.1 to 200 nM.
The figure for `COC(=O)CCC(=O)N(C)C1c2ccccc2N(C(=O)c2ccc(OC(F)(F)F)cc2)C2CCCC12` (racemic) [17R] is 201 to 7500 nM; for `CN(C(=O)CCC(=O)O)C1c2ccccc2N(C(=O)c2ccc(OC(F)(F)F)cc2)C2CCCC12` (racemic) [17S] it is 5.1 to 20 nM.
In turn, `CC(C)N(C(=O)CCC(=O)O)C1c2ccccc2N(C(=O)c2ccc(OC(F)(F)F)cc2)C2CCCC21` (racemic) [17T, 4-[[cis,cis-2,3,3a,4,9,9a-hexahydro-4-[4-(trifluoromethoxy)benzoyl]-1H-cyclopenta[b]quinolin-9-yl](1-methylethyl)amino]-4-oxobutanoic acid] yielded a Ki of 20.1 to 200 nM.
Then `CN(C(=O)CCC(=O)O)C1c2ccccc2N(C(=O)OCc2ccccc2)C2CCCC12` (racemic) [17U, 4-(phenylmethyl) cis,cis-9-[(3-carboxy-1-oxopropyl)methylamino]-1,2,3,3a,9,9a-hexahydro-4H-cyclopenta[b]quinoline-4-carboxylate], with 201 to 7500 nM; and `CN(C(=O)CCC(=O)O)C1c2ccccc2N(C(=O)c2cccnc2)C2CCCC12` (racemic) [17V], with 20.1 to 200 nM.
Then `CN(C(=O)CCC(=O)O)C1c2ccccc2N(C(=O)c2ccc(-c3ccccc3)cc2)C2CCCC12` (racemic) [17W], with 5.1 to 20 nM.
The figure for `CN(C(=O)CCC(=O)O)C1c2ccccc2N(C(=O)c2ccc(Cl)cc2)C2CCCC12` (racemic) [17X] is 20.1 to 200 nM.
As to `CCc1ccc(C(=O)N2c3ccccc3C(N(C)C(=O)CCC(=O)O)C3CCCC32)cc1` (racemic) [17Y], the Ki fell in the range of 20.1 to 200 nM.
Then `CN(C(=O)CCC(=O)O)C1c2ccccc2N(C(=O)c2ccc(Cl)c(Cl)c2)C2CCCC12` (racemic) [17Z], with 20.1 to 200 nM; and `CC1(N(C(=O)CCC(=O)O)C2c3ccccc3N(C(=O)c3ccccc3)C3CCCC32)CC1` (racemic) [17i, 4-[[cis,cis-4-benzoyl-2,3,3a,4,9,9a-hexahydro-1H-cyclopenta[b]quinolin-9-yl](1-methylcyclopropyl)amino]-4-oxobutanoic acid], with 20.1 to 200 nM; and `O=C(O)CCC(=O)N(C1CC1)C1c2ccccc2N(C(=O)c2ccc(-c3ccccc3)cc2)C2CCCC21` (racemic) [18C, 4-[[cis,cis-4-([1,1′-biphenyl]-4-ylcarbonyl)-2,3,3a,4,9,9a-hexahydro-1H-cyclopenta[b]quinolin-9-yl]cyclopropylamino]-4-oxobutanoic acid], with 1 to 5 nM.
The figure for `O=C(O)CCC(=O)N(C1CC1)C1c2ccccc2N(C(=O)c2ccc(-n3cccn3)cc2)C2CCCC21` (racemic) [18D, 4-[cyclopropyl[cis,cis-2,3,3a,4,9,9a-hexahydro-4-[4-(1H-pyrazol-1-yl)benzoyl]-1H-cyclopenta[b]quinolin-9-yl]amino]-4-oxobutanoic acid] is 5.1 to 20 nM.
Then `O=C(O)CCC(=O)N(C1CC1)C1c2ccccc2N(C(=O)c2cccc(-c3ncccn3)c2)C2CCCC21` (racemic) [18E, 4-[cyclopropyl[cis,cis-2,3,3a,4,9,9a-hexahydro-4-[3-(2-pyrimidinyl)benzoyl]-1H-cyclopenta[b]quinolin-9-yl]amino]-4-oxobutanoic acid], with 5.1 to 20 nM; and `O=C(O)CCC(=O)N(C1CC1)C1c2ccccc2N(C(=O)c2cccc(-c3cncnc3)c2)C2CCCC21` (racemic) [18F, 4-[cyclopropyl[cis,cis-2,3,3a,4,9,9a-hexahydro-4-[3-(5-pyrimidinyl)benzoyl]-1H-cyclopenta[b]quinolin-9-yl]amino]-4-oxobutanoic acid], with 20.1 to 200 nM; and `O=C(O)CCC(=O)N(C1CC1)C1c2ccccc2N(C(=O)c2cccc(-c3cncs3)c2)C2CCCC21` (racemic) [18G, 4-[cyclopropyl[cis,cis-2,3,3a,4,9,9a-hexahydro-4-[3-(5-thiazolyl)benzoyl]-1H-cyclopenta[b]quinolm-9-yl]amino]-4-oxobutanoic acid], with 5.1 to 20 nM.
`CCOc1ncc(-c2cccc(C(=O)N3c4ccccc4C(N(C(=O)CCC(=O)O)C4CC4)C4CCCC43)c2)cn1` (racemic) [18H, 4-[cyclopropyl[cis,cis-4-[3-(2-ethoxy-5-pyrimidinyl)benzoyl]-2,3,3a,4,9,9a-hexahydro-1H-cyclopenta[b]quinolin-9-yl]amino]-4-oxobutanoic acid]: the inhibitory constant (Ki) is 20.1 to 200 nM.
The figure for `COc1nc(-c2cccc(C(=O)N3c4ccccc4C(N(C(=O)CCC(=O)O)C4CC4)C4CCCC43)c2)cs1` (racemic) [18J, 4-[cyclopropyl[cis,cis-2,3,3a,4,9,9a-hexahydro-4-[3-(2-methoxy-4-thiazolyl)benzoyl]-1H-cyclopenta[b]quinolin-9-yl]amino]-4-oxobutanoic acid] is 5.1 to 20 nM.
As for `COc1ncc(-c2cccc(C(=O)N3c4ccccc4C(N(C(=O)CCC(=O)O)C4CC4)C4CCCC43)c2)s1` (racemic) [18K, 4-[cyclopropyl[cis,cis-2,3,3a,4,9,9a-hexahydro-4-[3-(2-methoxy-5-thiazolyl)benzoyl]-1H-cyclopenta[b]quinolin-9-yl]amino]-4-oxobutanoic acid], the Ki is 5.1 to 20 nM.
The figure for `O=C(O)CCC(=O)N(C1CC1)C1c2ccccc2N(C(=O)c2ccc(-c3cncnc3)cc2)C2CCCC21` (racemic) [18N, 4-[cyclopropyl[cis,cis-2,3,3a,4,9,9a-hexahydro-4-[4-(5-pyrimidinyl)benzoyl]-1H-cyclopenta[b]quinolin-9-yl]amino]-4-oxobutanoic acid] is 20.1 to 200 nM; for `CCOc1cnc(-c2ccc(C(=O)N3c4ccccc4C(N(C(=O)CCC(=O)O)C4CC4)C4CCCC43)cc2)nc1` (racemic) [18P, 4-[cyclopropyl[cis,cis-4-[4-(5-ethoxy-2-pyrimidinyl)benzoyl]-2,3,3a,4,9,9a-hexahydro-1H-cyclopenta[b]quinolin-9-yl]amino]-4-oxobutanoic acid] it is 20.1 to 200 nM.
Then `O=C(O)CCC(=O)N(C1CC1)C1c2ccccc2N(C(=O)c2ccc(-c3ccnnc3)cc2)C2CCCC21` (racemic) [18Q, 4-[cyclopropyl[cis,cis-2,3,3a,4,9,9a-hexahydro-4-[4-(4-pyridazinyl)benzoyl]-1H-cyclopenta[b]quinolin-9-yl]amino]-4-oxobutanoic acid], with 20.1 to 200 nM.
For the compound `COc1ncc(-c2ccc(C(=O)N3c4ccccc4C(N(C(=O)CCC(=O)O)C4CC4)C4CCCC43)cc2)s1` (racemic) [18R, 4-[cyclopropyl[cis,cis-2,3,3a,4,9,9a-hexahydro-4-[4-(2-methoxy-5-thiazolyl)benzoyl]-1H-cyclopenta[b]quinolin-9-yl]amino]-4-oxobutanoic acid], the Ki was in the range of 5.1 to 20 nM.
